Assay results from the supplement of paper PMC11417369.
± gives the standard deviation of the averaged measurements. This is one part of the list.

tested on: PfAP2-LT AP2 domain (GST-tagged); experiment: gcPBM binding intensity (ln(normalized median fluorescence intensity)); higher = stronger DNA binding
Method in brief: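 GST-tagged P. falciparum DNA-binding domains, expressed in E. coli (about 25 μg on average), were applied for 1 h to an Agilent 4 × 180k array of primer-extended double-stranded 36-bp intergenic genomic probes plus negative controls. The binding buffer was 1× PBS with 1% milk, 0.2 mg/ml BSA, 0.5% salmon testes DNA and 0.03% Triton X-100. Bound protein was detected with Alexa488 anti-GST antibody and scanned at 488 nm. Binding intensity is the highest Masliner-normalised natural-log median intensity across replicate spots of either probe orientation.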

Sequence | gcPBM binding intensity (ln)
GTATATATATATATATGTACATATATGTAGATATAT [XGTACX_site5431] | 9.16 ± 0.23
ATATGTACGCAAGGTGCACACTGGTGCATTAAAAAA [CACACA_site1801] | 9.26 ± 0.63
AAAAAAAAAATGTGCACACGCGTACACCCAAAAAAA [CACACA_site5149] | 9.19 ± 0.44
TTTTTGTATCCTTCTTCTTTTTCCAGACTACATTAT [XGTACX_negctrl_site216] | 8.87 ± 0.52
TATAAAAATAATATTACACACATGTAAAATGGCTGT [CACACA_site5755] | 9.02 ± 0.33
TTGTGGATTTTGTGCGCACACACATGCAAAAAGAAA [CACACA_site1147] | 9.4 ± 0.43
TCTCAGTAAATTAAATGTACATAAGGGAGGAACTAT [XGTACX_site8045] | 8.84 ± 0.33
TAAATATATGCATATACACACAACAAAAAAATATAT [CACACA_site2341] | 9.29 ± 0.49
CACAGACATATATATACACACTTTTATTTAAATAAC [CACACA_site4962] | 8.94 ± 0.39
AACATATAAATAAACTGTACATATATATATATATAT [XGTACX_site1056] | 9.42 ± 0.3
AATATTACGTGTTTGGTATTTTTCGATGTTGGCAGG [XGTACX_negctrl_site59] | 8.82 ± 0.53
ATATTATTTTAAAAAAGTACATTTTTAAGAATTCTT [XGTACX_site6630] | 8.32 ± 0.4
ATAAAATTTATATAAGCACACAAATATATATTTATA [CACACA_site9083] | 8.69 ± 0.47
AATTGCATAATATATTCACACATTTTTAAGTGATAC [CACACA_site5679] | 8.71 ± 0.35
GTAAAGGCTATATATGTGCACATTTTTTTTTTTTTT [GTGCAC_site9925] | 8.91 ± 0.45
TTATGGTTATACATATGTACATATATATATATATAT [XGTACX_site1494] | 9.47 ± 0.2
TATCATTATGTAGAAACACACATAAGCTTCGGTTCA [CACACA_site2766] | 8.79 ± 0.43
GGGGAAAAAAAAAAAGGAAAAAGAAAAAAAAAAAAA [GTGCAC_negctrl_site489] | 8.32 ± 0.64
AAAAAAAAAAAAAAAAAAAAAAAAATATATATATAT [CACACA_negctrl_site436] | 9.25 ± 0.27
GTTGTGTAATTCGTAACACACATAAAATATAAATAA [CACACA_site7799] | 9.11 ± 0.43
TTACTATATAATATGTGTACACAACATATAATATAT [XGTACX_site1383] | 8.84 ± 0.38
TTTTTTTTTTGATGTTGTACTTATATACTATATAAT [XGTACX_site2778] | 8.7 ± 0.51

Sequence | gcPBM binding intensity (ln)
CATTTTTAAAAAAATTGTACAAAACATATATGTGTA [XGTACX_site3396] | 8.57 ± 0.44
TTCCTTTTGAACTCTCGTACGCGTAGGTGTTATTAT [XGTACX_site6264] | 9.06 ± 0.55
TATTAAAAGTAAAAAACACACATGGATATATACATA [CACACA_site3959] | 8.89 ± 0.4
TATGTGTGACAAAATTGTACGGTCTCTTTATTTTGT [XGTACX_site2679] | 8.96 ± 0.38
TATACGGACTCTAAGTGTACTTAAAATAATTCAAAC [XGTACX_site3606] | 8.63 ± 0.43
TAAAAATGTTGACACACACACATAAATATATTTTAT [CACACA_site7227] | 9.22 ± 0.36
TATATTGCCCTTCACACACACACATATATATATATA [CACACA_site2492] | 10 ± 0.13
ATTTTTATACCTAAGTGTACATGATGTTTTCTTTTT [XGTACX_site973] | 9.01 ± 0.47
TATTATATAATAAAAATTATTATTATTTGTATAAAT [CACACA_negctrl_site195] | 8.13 ± 0.38
TAAATAAATAAAAAAACACACATATAAATATAAATA [CACACA_site7815] | 8.9 ± 0.52
TGTTTCCTATTTTGTATGCACTTTTTGTCATAATTA [GTGCAC_site9921] | 8.98 ± 0.49
TAAACAGACATACATACACACATACATACAGACATA [CACACA_site6997] | 9.61 ± 0.37
AAAAAAAAAGTATATATATATTTAAGGAATTCTCTC [GTGCAC_negctrl_site454] | 8.46 ± 0.47
CATATACTCGGACACACACACACACCGACAAAAAAA [CACACA_site4433] | 10.1 ± 0.41
TTTTGTGGAGGATGGTGTACGGTATTGTATTATTAC [XGTACX_site1942] | 9.16 ± 0.44
TTTATAGTTTTTAATAGTACACATATTTTTAAGTAT [XGTACX_site5498] | 8.53 ± 0.46
TATCATAAAATATGTAGTACGTATATATATAAAAAT [XGTACX_site5455] | 8.97 ± 0.41
AATATATAGCTAAAAACACACAAATATATACTCATA [CACACA_site5904] | 8.98 ± 0.46
CTCACGTAGCTTGATGCATGCAAACTTGAGTAAAAG [TGCATGCA_site409] | 8.83 ± 0.4
ATACATTTTTTTTTCACACATATATATATATTTAAT [CACACA_site5995] | 8.91 ± 0.43
TTTATAAAATTTATTGCACACAATTATTTTATAATT [CACACA_site2489] | 8.93 ± 0.53
CAACCTTTTTTGTTGGTGCATAATTTTTTTTTCTTT | 8.56 ± 0.42
